# Measured values published in the supplement of paper PMC10037445.
# Whole data set: some 2,900 compounds, median “IRF Lucia reporter activity, fold change vs agonist alone” near 0.9, cut for the highest 2% near 2.8. The list shows a part of the results.
# How the values were obtained:
# RAW-Dual [1] = assay: IRF Lucia reporter activity, fold change vs agonist alone; higher = enhanced IRF activity; conditions: library stock concentration (final ~1000-fold dilution): 10 mM, agonist: MPLA (TLR4) […]
# Outline: (§1)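 Supernatant from RAW-Dual macrophages was read after 20 hours for IRF by QuantiLuc luminescence and for NF-κB by QuantiBlue absorbance at 620 nm. The cells (50,000 cells/well in DMEM, 384-well plates, 37 °C, 5% CO2) had received 50 nL of library stock by pin tool and, 1 h later, a PRR agonist. Reporter activity is expressed relative to agonist-alone wells as fold change, and wells were flagged cytotoxic if IncuCyte confluency was under 70% of agonist controls in both mask sets.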
# RAW-Dual [2] = assay: IRF Lucia reporter activity, fold change vs agonist alone; cytotoxicity flag (confluency mask): not cytotoxic; higher = enhanced IRF activity
# Outline: as §1
# RAW-Dual [3] = assay: IRF Lucia reporter activity, fold change vs agonist alone; cytotoxicity flag (confluency mask): cytotoxic (confluency <70% of control); higher = enhanced IRF activity
# Outline: as §1
# [4] = cytotoxicity flag (confluency mask): not cytotoxic
# [5] = agonist: 3'3'-cGAMP (STING) 10 ug/mL
# [6] = cytotoxicity flag (confluency mask): cytotoxic (confluency <70% of control)
smiles,measurement,setting,value
OCC1OC(O)CC(O)C1O (centres undefined),IRF Lucia reporter activity,RAW-Dual [1]; [4],0.993
CCCCOc1c(C(=O)c2c(F)cc(C)cc2F)cnc2[nH]ncc12 (library stock concentration (final ~1000-fold dilution): 10 mM),IRF Lucia reporter activity,RAW-Dual [2]; [5],0.0978
same,IRF Lucia reporter activity,RAW-Dual [2]; agonist: LPS (TLR4) 0.1 ug/mL,0.134
CCCCOc1c(C(=O)c2c(F)cc(C)cc2F)cnc2[nH]ncc12,IRF Lucia reporter activity,RAW-Dual [1]; [4],0.0699
COc1cc2nccc(Oc3ccc(NC(=O)c4cn(C(C)C)c(=O)n(-c5ccc(F)cc5)c4=O)cc3F)c2cc1OC (library stock concentration (final ~1000-fold dilution): 10 mM),IRF Lucia reporter activity,RAW-Dual [2]; [5],0.694
same,IRF Lucia reporter activity,RAW-Dual [2]; agonist: LPS (TLR4) 0.1 ug/mL,0.703
Nc1nc2c(cnn2CCc2ccccc2)c2nc(-c3ccco3)nn12 (library stock concentration (final ~1000-fold dilution): 10 mM),IRF Lucia reporter activity,RAW-Dual [2]; [5],0.853
same,IRF Lucia reporter activity,RAW-Dual [2]; agonist: LPS (TLR4) 0.1 ug/mL,0.981
CNC(=O)c1c(F)cccc1Nc1nc(Nc2cc3c(cc2OC)CCN3C(=O)CN(C)C)nc2[nH]ccc12 (library stock concentration (final ~1000-fold dilution): 10 mM),IRF Lucia reporter activity,RAW-Dual [3]; [5],0.723
same,IRF Lucia reporter activity,RAW-Dual [3]; agonist: LPS (TLR4) 0.1 ug/mL,0.995
CNC(=O)c1c(F)cccc1Nc1nc(Nc2cc3c(cc2OC)CCN3C(=O)CN(C)C)nc2[nH]ccc12,IRF Lucia reporter activity,RAW-Dual [1]; [6],0.96
Cc1cccc(C)c1OCC(C)N.Cl (centres undefined) (library stock concentration (final ~1000-fold dilution): 10 mM),IRF Lucia reporter activity,RAW-Dual [2]; [5],1.09
same,IRF Lucia reporter activity,RAW-Dual [2]; agonist: LPS (TLR4) 0.1 ug/mL,1.09
Cc1cccc(C)c1OCC(C)N.Cl (centres undefined),IRF Lucia reporter activity,RAW-Dual [1]; [4],1.15
O=C(/C=C/c1cccc(S(=O)(=O)Nc2ccccc2)c1)NO (library stock concentration (final ~1000-fold dilution): 10 mM),IRF Lucia reporter activity,RAW-Dual [3]; [5],0.0878
same,IRF Lucia reporter activity,RAW-Dual [3]; agonist: LPS (TLR4) 0.1 ug/mL,0.448
O=C(/C=C/c1cccc(S(=O)(=O)Nc2ccccc2)c1)NO,IRF Lucia reporter activity,RAW-Dual [1]; [6],0.364
CN(C)C(=O)/C(C#N)=C/c1ccc(-c2nc3cnc4[nH]ccc4c3n2C2CCCCC2)o1 (library stock concentration (final ~1000-fold dilution): 10 mM),IRF Lucia reporter activity,RAW-Dual [2]; [5],0.21
same,IRF Lucia reporter activity,RAW-Dual [2]; agonist: LPS (TLR4) 0.1 ug/mL,0.458
CCn1c(=O)c2c(nc(/C=C/c3ccc(OC)c(OC)c3)n2C)n(CC)c1=O,IRF Lucia reporter activity,RAW-Dual [1]; [4],1.04
CCn1c(=O)c2c(nc(/C=C/c3ccc(OC)c(OC)c3)n2C)n(CC)c1=O (library stock concentration (final ~1000-fold dilution): 10 mM),IRF Lucia reporter activity,RAW-Dual [2]; [5],0.992
same,IRF Lucia reporter activity,RAW-Dual [2]; agonist: LPS (TLR4) 0.1 ug/mL,1.19
COc1cc2c(cc1OC)C1CC(OC(=O)C(N)C(C)C)C(CC(C)C)CN1CC2.Cc1ccc(S(=O)(=O)O)cc1.Cc1ccc(S(=O)(=O)O)cc1 (centres undefined) (library stock concentration (final ~1000-fold dilution): 10 mM),IRF Lucia reporter activity,RAW-Dual [2]; [5],0.978
same,IRF Lucia reporter activity,RAW-Dual [2]; agonist: LPS (TLR4) 0.1 ug/mL,1.17
COc1cc(NS(=O)(=O)c2ccc(N)cc2)ncn1 (library stock concentration (final ~1000-fold dilution): 10 mM),IRF Lucia reporter activity,RAW-Dual [2]; [5],0.998
same,IRF Lucia reporter activity,RAW-Dual [2]; agonist: LPS (TLR4) 0.1 ug/mL,1.13
COc1cc(NS(=O)(=O)c2ccc(N)cc2)ncn1,IRF Lucia reporter activity,RAW-Dual [1]; [4],1.06
CC1(F)C(O)C(CO)OC1n1ccc(=O)[nH]c1=O (centres undefined) (library stock concentration (final ~1000-fold dilution): 10 mM),IRF Lucia reporter activity,RAW-Dual [2]; [5],0.947
same,IRF Lucia reporter activity,RAW-Dual [2]; agonist: LPS (TLR4) 0.1 ug/mL,0.777
CC1(F)C(O)C(CO)OC1n1ccc(=O)[nH]c1=O (centres undefined),IRF Lucia reporter activity,RAW-Dual [1]; [4],1.03
CN1CCN2c3ncccc3Cc3ccccc3C2C1 (centres undefined),IRF Lucia reporter activity,RAW-Dual [1]; [4],0.931
CN1CCN2c3ncccc3Cc3ccccc3C2C1 (centres undefined) (library stock concentration (final ~1000-fold dilution): 10 mM),IRF Lucia reporter activity,RAW-Dual [2]; [5],1.17
same,IRF Lucia reporter activity,RAW-Dual [2]; agonist: LPS (TLR4) 0.1 ug/mL,0.744
NS(=O)(=O)c1ccc(NC(=S)N2CCN(C/C=C/c3ccccc3)CC2)cc1 (library stock concentration (final ~1000-fold dilution): 10 mM),IRF Lucia reporter activity,RAW-Dual [2]; [5],1.05
same,IRF Lucia reporter activity,RAW-Dual [2]; agonist: LPS (TLR4) 0.1 ug/mL,1.16
CCOC(=O)C(CCc1ccccc1)NC1CSC(c2cccs2)CN(CC(=O)O)C1=O.Cl (centres undefined) (library stock concentration (final ~1000-fold dilution): 10 mM),IRF Lucia reporter activity,RAW-Dual [2]; [5],0.998
same,IRF Lucia reporter activity,RAW-Dual [2]; agonist: LPS (TLR4) 0.1 ug/mL,1.07
CCOC(=O)C(CCc1ccccc1)NC1CSC(c2cccs2)CN(CC(=O)O)C1=O.Cl (centres undefined),IRF Lucia reporter activity,RAW-Dual [1]; [4],0.888
COc1ccccc1N1CCN(CC(O)COc2cccc3ccccc23)CC1.Cl.Cl (centres undefined) (library stock concentration (final ~1000-fold dilution): 10 mM),IRF Lucia reporter activity,RAW-Dual [2]; [5],0.885
same,IRF Lucia reporter activity,RAW-Dual [2]; agonist: LPS (TLR4) 0.1 ug/mL,1.08
COc1ccccc1N1CCN(CC(O)COc2cccc3ccccc23)CC1.Cl.Cl (centres undefined),IRF Lucia reporter activity,RAW-Dual [1]; [4],1.08
COc1ccc2cc(-c3[nH]c(-c4ccc(S(C)=O)cc4)nc3-c3ccncc3)ccc2c1 (centres undefined) (library stock concentration (final ~1000-fold dilution): 10 mM),IRF Lucia reporter activity,RAW-Dual [2]; [5],0.0441
same,IRF Lucia reporter activity,RAW-Dual [2]; agonist: LPS (TLR4) 0.1 ug/mL,0.466
COc1ccc2cc(-c3[nH]c(-c4ccc(S(C)=O)cc4)nc3-c3ccncc3)ccc2c1 (centres undefined),IRF Lucia reporter activity,RAW-Dual [1]; [4],0.798
